# Laboratory results as given in ChEMBL document CHEMBL4888484, “Replenishing the malaria drug discovery pipeline: Screening and hit evaluation of the MMV Hit Generation Library 1 (HGL1) against asexual blood stage Plasmodium falciparum ,using a nano luciferase reporter read-out” (2022).
# In all, about 150,000 compounds went through this assay and about 540 (0.36%) showed an effect of 50% or more. This is one part of the list.
# System: Plasmodium falciparum
# Assay: Primary screen in NF54 nanoGlo assay, in single point, at 2uM, 72h; a lower Z score goes with more inhibition
# Format: functional, Erythrocyte
# Settings: timepoint 72 hour
Compound,% Inhibition,Z score
COc1ccc(-c2cc(NCCO)nc(N)n2)c(-n2cccn2)c1,1%,-0.18
CCOc1ccccc1C(=O)NCN1CCN(c2ccc(OC)cc2)CC1,3%,-0.33
COc1ccccc1C1(CN=C(N)N2CCOCC2)CCC1,-2%,0.18
O=C(N[C@@H]1CN(C(=O)CCCc2ccccc2)C[C@H]1CO)c1ccccc1,2%,-0.27
CN(C)CCC(=O)c1cccc(Br)c1,-3%,0.35
CN(C[C@@H]1CCCO1)C(=O)CCn1ccnn1,-6%,1.11
CC(=O)Nc1ccc2nc(N3CCC(C(=O)NCCCc4ccccc4)CC3)cc(C)c2c1,-5%,0.71
Cc1cc(C(=O)N2CCC[C@@]3(CNC(=O)O3)C2)cc(=O)[nH]1,-9%,0.92
O=C(c1ccco1)n1nc(NCc2cccc3ccccc23)nc1NCc1cccc2ccccc12,-6%,0.83
Cc1nnnn1C[C@@H](O)CC1CCCC1,-12%,1.71
COC(=O)CC(NC(C)=O)C(=O)N1CCCC1C(F)(F)F (stereo not given),-2%,0.27
COc1ccccc1N1CCN(Cc2cc(=O)[nH]c(C(C)C)n2)CC1,-18%,1.61
O=C(CCC(=O)NCc1cccs1)NCc1ccc2c(c1)OCO2,31%,-3.97
OCC1(CNc2cc3c(nn2)-c2ccccc2CCC3)CCOCC1,-1%,0.09
Cc1c(-c2ccc(F)cc2)nn(C2CCCC2)c1-c1ccc(F)cc1,25%,-2.88
Brc1ccc(OCCN2CCC[C@H]2c2nnc3ccccn23)cc1,2%,-0.29
CC(C)C1OCCC1CNC(=O)c1ccoc1 (stereo not given),-6%,0.75
CCNC(=O)C1Cc2cc(C(F)(F)F)ccc2N2CCN(CC(=O)N3CCOCC3)CC12 (stereo not given),-2%,0.35
O=S(=O)(NCCc1cnccn1)c1c(F)c(F)cc(F)c1F,-10%,2.06
CC(C)c1nsc(N2CCN(Cc3ccccc3)CC2)n1,14%,-1.57
O=C(CCc1cn[nH]c1)N1CC[C@@]2(CCCN(CCC3CCCCC3)C2)C1,-4%,0.36
CN(CC1CCC1)C(=O)[C@@H]1CCCN1C(=O)C1CCCC1,-8%,1.17

Compound,% Inhibition,Z score
O=C(NCCCN1Cc2ccccc2C1)c1cnc(-c2ccccn2)nc1O,-12%,1.65
CCn1cc(S(=O)(=O)N2CCCN(C(=O)C(C)C)CC2)cn1,-14%,1.8
COc1ccc(CNC(=O)N2CCOC3CCCC32)cc1OC (stereo not given),-12%,1.81
O=C(N[C@@H]1[C@@H]2CCO[C@@H]2[C@H]1N1CCCC1)c1cc2c(s1)CCCCC2,-10%,1.32
CCCNC(=O)c1cn(CCC)c2nc(C)ccc2c1=O,-3%,0.37
COc1ccc(CN2C(=O)[C@](NC(=O)C3CCCCC3)(C(F)(F)F)N=C2c2ccccc2)cc1,-9%,1.02
CCN(CC)C(=O)N1CCC[C@H](c2nccn2C(C)C)C1,-15%,1.87
O=C(c1nc2ccccc2cc1C1CC1)N1CCCn2nnnc21,-8%,1.16
CCc1cc(C)nc(NC[C@]2(OC)CCS(=O)(=O)C2)n1,-5%,0.61
C#CCC1(C(=O)NCC(O)C(C)C)CCCN1C(=O)OC(C)(C)C (stereo not given),2%,-0.28
CN(C)c1ccc(C#N)c(NS(=O)(=O)CCCC(F)(F)F)c1,-9%,1.02
O=C1[C@@H]2CCCCCN2C(=O)N1c1ccc2c(c1)OCO2,-7%,1.08
COc1cccc(C(=O)N2C[C@@H]3COCCN3C3(CN(Cc4c[nH]cn4)C3)C2)c1,-7%,1.13
C[C@@H](C(=O)N1CCc2ccccc2C1)N(c1ccc2c(c1)OCCO2)S(C)(=O)=O,-8%,1.24
CCCNC(=O)[C@H](C)NC(=O)Nc1cccc(C)c1,-4%,0.53
O=C(c1ccc(Cn2ccnn2)cc1)N1CCn2cncc2C1,0%,0.09
O=C1C[C@H](c2ccccc2Cl)c2cnn(Cc3ccc4c(c3)OCO4)c2N1,7%,-0.84
COc1ccc(-c2noc(-c3sc(-c4nnc[nH]4)nc3C)n2)cc1,-3%,0.46
Nc1c(-c2nc3ccccc3[nH]2)c2nc3ccccc3nc2n1Cc1ccccc1F,78%,-5.76
Cc1ccccc1C(=O)N1[C@H](C(=O)NCc2ccncc2)COC12CCN(C(=O)c1cccc(F)c1)CC2,5%,-0.85
CC(=O)N[C@H]1[C@H](OCCC(C)C)O[C@H](COC(C)=O)[C@@H](OC(C)=O)[C@@H]1OC(C)=O,5%,-0.61
CC1CCCCC1OCCN1CCN(CC(O)c2ccco2)CC1 (stereo not given),-15%,1.25

Compound,% Inhibition,Z score
O=C(c1ccc(F)cc1Br)N(Cc1ncc[nH]1)c1cccc(F)c1,-3%,0.36
Nc1ccc(Br)cc1C(=O)N[C@H]1CC[C@H](O)CC1,-9%,1.19
O=C(c1cccs1)N1CCC(c2nnc(C3CC3)o2)CC1,20%,-2.66
CCCCCC(=O)Nc1ccccc1Cl,36%,-0.95
FC(F)(F)c1ccc(-c2noc([C@@H]3Cc4[nH]cnc4CN3Cc3cc4ccccc4o3)n2)cc1,0%,-0.05
Cc1nn(C)c(C)c1S(=O)(=O)Nc1ncc(C(C)C)s1,32%,-0.94
NC(=O)Cn1ccnc1C1CCN(c2ncnc3ccsc23)CC1,-7%,0.86
O=C([C@@H]1CCCO1)N1CCN(c2nc(-c3cccnc3)nc3c2CNC3)CC1,-8%,1.32
CCCn1cc(C(=O)NC[C@]2(O)CCCC2(C)C)cn1,24%,-2.71
O=C(c1c(F)cc(F)cc1F)C1CCN(Cc2csnn2)CC1,-12%,1.6
COc1ccccc1CC(=O)NCc1ccc(-c2ccco2)nc1,-9%,0.98
C[C@@H](c1ccon1)N(C)C(=O)c1coc(COc2ccc(F)cc2)n1,-6%,0.85
Nc1nc(CCNC(=O)c2ccc([C@@H]3CCCN3)s2)cs1,-3%,0.44
Cc1ccc(CCN2C(=O)CC[C@@]2(C)C(=O)NC2CCCCCC2)cc1,-31%,2.72
CCOc1ccccc1-c1nccn1CCNC(=O)c1cccnc1,10%,-1.32
CCC(C)C(NC(=O)c1ccc(Cl)cc1)C(=O)OCc1cn2ccccc2c1C#N (stereo not given),-6%,1.06
Cc1cc(C)c2nc(NC[C@H]3CCCO3)sc2c1,19%,-2.39
O=C(C1CCCC(C(=O)N2CCCCCO2)C1)N1CCCCCO1 (stereo not given),23%,-2.92
Cc1cccc(NC(=O)Cn2cccc(S(=O)(=O)N3CCC(C)CC3)c2=O)c1,-8%,1.1
COc1cccc(S(=O)(=O)N2CCn3nnc(CCC(=O)N4CCOCC4)c3C2)c1,-5%,0.99
CCn1cc(NC(=O)c2cc(Br)cnc2N(C)C)cn1,-16%,1.66
CO[C@@H](C)c1nc(CCc2ccccc2)nn1CC(F)(F)F,-3%,0.48

Compound,% Inhibition,Z score
CCc1nc(CNC(=O)[C@@H]2NCCc3[nH]cnc32)cs1,-6%,0.63
CCN(Cc1nc2c(s1)C[C@@H](C)CC2)C(=O)c1cnc(OC)nc1,0%,0.01
CC(C)Oc1ccc(-c2ccnc3c2ccn3C)nn1,0%,-0.03
CCn1nc(C)c(CN2CCC(n3nccc3NC(=O)c3cccnc3)CC2)c1C,-5%,0.92
Nc1c(NC(=O)Nc2ccccc2)c(-c2ccccc2)nn1-c1ccccc1Cl,2%,-0.35
O=C(CCC(F)(F)F)N[C@H]1CC[C@@H]2CCC[C@@H]21,-15%,1.4
CCCCN1CCN([C@H]2CCOC2)CC1=O,-9%,1.55
CCCc1nnc(N(C)C[C@H]2CCOC2)s1,-6%,1.19
O=C(N[C@H]1C[C@H]2C(=O)Nc3cc(Cl)ccc3C(=O)N2C1)c1ccccc1,25%,-2.88
Cc1csc(C(C)(C)NC(=O)CCn2nc3ccccn3c2=O)n1,-2%,0.26
Cc1n[nH]c2c1CN(C(=O)N[C@@H](C)c1ccc(F)cc1)CC2,4%,-0.58
COCCN1CCN(c2nc(-c3ccc(F)cc3)c3c(N)n(-c4ccc(Cl)cc4)nc3n2)CC1,-3%,0.28
COc1ncccc1C(=O)N1CCc2sccc2C1,-13%,2.49
C[C@H]1CNc2nc(N)[nH]c(=O)c2N1C(=O)c1cccnc1,1%,-0.14
O=C(Nc1cccc(-c2noc(C3CC3)n2)c1)c1cccnc1C1CC1,-11%,1.47
C[C@@H](CCc1cccn1C)Nc1nccnc1C#N,0%,0.01
O=c1nc([C@@H]2CCCO2)[nH]c2c(Cl)cccc12,0%,-0.06
CCCc1nnc(NCc2cnn(CC)c2)s1,-16%,3.02
NS(=O)(=O)c1ccc(NC(=O)C23CCC(CC2)C3)cc1,-7%,0.94
